T1: UNK ZnF1-3 (human, UniProt Q9C0B0 31-174)
T1 sequence: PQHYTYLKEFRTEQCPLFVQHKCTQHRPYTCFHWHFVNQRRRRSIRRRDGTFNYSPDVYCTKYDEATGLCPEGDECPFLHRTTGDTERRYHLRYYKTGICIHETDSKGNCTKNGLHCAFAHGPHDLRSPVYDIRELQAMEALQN

B1: 44155223_44156325_877_CDS_ENSMUSG00000035696_ENSMUST00000045793|mouse|control|control (ssRNA)
RNA: GGGAGUUCUACAGUCCGACGAUCAGGAUGAUGGGGAGAAAGAUGAGGAGGAUGUAUAAGAAACGGAUCGCUAGAAAUGAGGGGCGGGAACGCAGCAUAUGGUACUGGUAAGUGCUGAACUGAACAUGCCUGAAGCAUUGGAGGCAACAGAGGAUUGAGCAUCA
B2: 115118305_115119361_312_CDS_ENSG00000116752_ENST00000369541|human|control|control (ssRNA)
RNA: GGGAGUUCUACAGUCCGACGAUCGUUUACACAUUCUUGCCAUGCAGUAAUGUCAUUUUUUUGACCAGAGGAGGGGGCUGGAAGCUCAUAUCGUUUCAUACUGAGCAAUUCAAUUGGUUGUCGAGCAGCCAGUCUUUCAAAUUCCAACAGAGGAUUGAGCAUCA
B3: chr11:109260588:109260589:+_ENSMUSG00000020611_ENSMUST00000020930|mus_mus|FALSE|FALSE (ssRNA)
RNA: GGGAGUUCUACAGUCCGACGAUCCUUCACCAGAGGACCCUUUGGGUGUGGAGUACCCACAAUGCACUGCGAUAGGAAAACAAACAAACAAACAAAAAAACCCAACAUGCUCCUCUUCAGGACAUCCUGUCUGGCUUGGCUGAACAACAGAGGAUUGAGCAUCA
B4: 8038687_8046011_421_CDS_ENSG00000066044_ENST00000407627|human|control|control (ssRNA)
RNA: GGGAGUUCUACAGUCCGACGAUCCAUGGUCCGCGGGAGCCCGCUGAUGUACAAGUUGGCGUCUUUGAUCACCUCUGAGCUCGGGCGAGCAUACGACACCUUAAUGGUUUUUGACUGGAGCCUCAAGCCGUUCAGCGUGUUGAUCAACAGAGGAUUGAGCAUCA
B5: 42835553_42839370_121_3pUTR_ENSG00000132823_ENST00000255174|human|control|control (ssRNA)
RNA: GGGAGUUCUACAGUCCGACGAUCGUCUGUAGACUCUCCUCCUCUCCAUCCUUGGCUUCGGAUUUCAUUGUGCAAGUUUUUACACUACUUAUCGAUGUUCCUGUUUACACUCCUCGCAGCUGGGACGCUCCGGUGAUGCGGGGCCAACAGAGGAUUGAGCAUCA
B6: chr16:94690093:94690094:+_ENSMUSG00000040785_ENSMUST00000117648|mus_hu|mus_mus_mus_hu_True|38_48 (ssRNA)
RNA: GGGAGUUCUACAGUCCGACGAUCGGGCUGGGAUGACGGACACACAGCCUCGAUUCCAGGGGGAAAAAGUCUUAGUCGAUACUAAUUUAAAAAGUAUUUUAUAAUUGGAAAAUCAGAUUACAUCUAUAAAAGAUGAAAAGCAAACAACAGAGGAUUGAGCAUCA
B7: chr11:44378942:44378943:+_ENSMUSG00000019189_ENSMUST00000019333|mus_hu|motif|central (ssRNA)
RNA: GGGAGUUCUACAGUCCGACGAUCUUUAAAUUUAUUAAGACAUUCAGCUAUGUCUGUCAGUCUACAUCCAAAUUUGCGGCGGAAAAUAAAAUAAAGUCACAUCCCACAUUAGGAAUACCGAGGUCUGAAAAACACUUUUUGAGCCAACAGAGGAUUGAGCAUCA
B8: chrX:101971874:101971875:+_ENSG00000158301_ENST00000332262|hu_hu|motif|central (ssRNA)
RNA: GGGAGUUCUACAGUCCGACGAUCCAUAGUGAGGUGUCUAAGCAUCCUUAUUCCAGUCAGCUGCUCAAGGGAAUCCACACGGUGUGCAAGGGUUUCCUCACACACUUGACAUAUGAAUGUCUCAAUCAUGUUUAGAUUUGGAUACAACAGAGGAUUGAGCAUCA
B9: chr12:21788615:21788616:-_ENSG00000111716_ENST00000350669|hu_mus|FALSE|FALSE (ssRNA)
RNA: GGGAGUUCUACAGUCCGACGAUCCUGAUUGAUGACGCUGGUCAGCCCCCGAGCAUUGAGGAUGCACGGGAGACUGAGGAAGACUUCAUUCUCAAUGCCGUACAUUCCCUUCACCAUGGUAGACACGGGGUGAAUCCGGGAGAGCAACAGAGGAUUGAGCAUCA
B10: chr1:39494447:39494448:+_ENSG00000168653_ENST00000372967|hu_mus|hu_hu_hu_mus_False|18_78 (ssRNA)
RNA: GGGAGUUCUACAGUCCGACGAUCGCACCGAGCGGCGUUCUUAUAGGGCUGUUCUGCACUCUGGAUUAUAAAGUGCCGGUCCAGGCUGAUGCCCAGCUUUUUCUGUAUGUCAAGGAAAGGCAUGGCCCUGCAGUGCCCUUGUCACAACAGAGGAUUGAGCAUCA
B11: chr7:44244176:44244177:+_ENSG00000106636_ENST00000223369|hu_mus|hu_hu_hu_mus_False|18_98 (ssRNA)
RNA: GGGAGUUCUACAGUCCGACGAUCACUGUCGCUCCGGACGUAGACGUGGCAAAGAUACUCUUGUUCUUUGACAGAAGCUCUGCUGCCUUUCCCCGAGCGUUCCACAAUCAGUUGACUCGUGAAGGUCAUGAAUUCCUGCACACUCAACAGAGGAUUGAGCAUCA
B12: chr2:216981417:216981418:+_ENSG00000079246_ENST00000392132|hu_hu|hu_hu_hu_mus_True|18_108 (ssRNA)
RNA: GGGAGUUCUACAGUCCGACGAUCCUGAUACUGAUCCUUGCCAGCAAGGGCAUUAUCAGUGCCAUCUGUGCCAUAGAGGACUAACGCAAUCUCAUCUUUGCUCUCCGAAAAUACCUGUCGCUGUACAAACAUAGUCAUCACUUUCAACAGAGGAUUGAGCAUCA
B13: chr5:32599118:32599119:+_ENSG00000113387_ENST00000502897|hu_mus|motif|central (ssRNA)
RNA: GGGAGUUCUACAGUCCGACGAUCAGAAAUACCUUUUCUUCCUGGUUUCAUUUCACCUUCUGAAUCCAUCCAAUAUUCUCGGAUAUCAAUUAGAAUUUUUCCUUUGAAGUCCCGAACACUGACAUAUCUCAUCUUUCCAAUCUGCAACAGAGGAUUGAGCAUCA
B14: chr7:56126341:56126342:+_ENSG00000146731_ENST00000540286|hu_mus|hu_hu_hu_mus_True|78_108 (ssRNA)
RNA: GGGAGUUCUACAGUCCGACGAUCCAUAUUUCUCCUUUUGGCUCUGCGCAGAGCUACUAUGCCUUCUUUCGCAAGGGCAUCUAAGGAAAAGGGGUCAAUCCCCUUUUGAUUAAUAACGACAAAUCCUUUAUCUGAGUCACCACACAACAGAGGAUUGAGCAUCA

The list shows a part of the results.

This assay concerns the target T1, UNK ZnF1-3. Briefly: nsRBNS (natural sequence RNA bind-n-seq); RBNS binding buffer (assumed for nsRBNS): 25 mM Tris pH 7.5, 150 mM KCl, 3 mM MgCl2, 0.01% Triton X-100, 500 ug/ml BSA, 20 U/ml SUPERase-In, 4 C; UNK is unkempt and MSI1 is Musashi-1; names of the RNAs are library labels; protein concentration not given here; high values mean tight binding.
The molecule B1 gave a binding signal of 1.62 enrichment R.

B2 showed a binding signal of 0.494 enrichment R.

The molecule B3 displayed a binding signal of 1.68 enrichment R.

Turning to B4, the binding signal was 0.494 enrichment R.

B5 came in with a binding signal of 0.558 enrichment R.

B6 showed a binding signal of 1.32 enrichment R.

For B7, the binding signal was found to be 1.15 enrichment R.

Regarding B8, the binding signal was determined as 0.755 enrichment R.

With B9, the binding signal turned out to be 0.617 enrichment R.

Turning to B10, the binding signal turned out to be 0.793 enrichment R.

B11 returned a binding signal of 0.614 enrichment R.

As to B12, the binding signal worked out at 0.852 enrichment R.

B13 showed a binding signal of 0.591 enrichment R.

For the molecule B14, the binding signal came to 0.62 enrichment R.

(Values after PMC12136788.)
